Article PMC10868759
These are yes or no findings as the source states them, for the method shown. In cells and extracts the contact can be indirect. Where a sequence is shown, tags or fusion partners need not be part of it.

Assays:
[1] = molecular target: T1, CESA3, N-terminal YN or YC fusion (BiFC) (Arabidopsis thaliana) (UniProt Q941L0); assay: split reporter; BiFC: N-terminal YN and YC fusions co-expressed in epidermal cells of N. benthamiana leaves, observed 3 days after infiltration by spinning-disk microscopy; CFP-N7 as transformation control
T1 sequence: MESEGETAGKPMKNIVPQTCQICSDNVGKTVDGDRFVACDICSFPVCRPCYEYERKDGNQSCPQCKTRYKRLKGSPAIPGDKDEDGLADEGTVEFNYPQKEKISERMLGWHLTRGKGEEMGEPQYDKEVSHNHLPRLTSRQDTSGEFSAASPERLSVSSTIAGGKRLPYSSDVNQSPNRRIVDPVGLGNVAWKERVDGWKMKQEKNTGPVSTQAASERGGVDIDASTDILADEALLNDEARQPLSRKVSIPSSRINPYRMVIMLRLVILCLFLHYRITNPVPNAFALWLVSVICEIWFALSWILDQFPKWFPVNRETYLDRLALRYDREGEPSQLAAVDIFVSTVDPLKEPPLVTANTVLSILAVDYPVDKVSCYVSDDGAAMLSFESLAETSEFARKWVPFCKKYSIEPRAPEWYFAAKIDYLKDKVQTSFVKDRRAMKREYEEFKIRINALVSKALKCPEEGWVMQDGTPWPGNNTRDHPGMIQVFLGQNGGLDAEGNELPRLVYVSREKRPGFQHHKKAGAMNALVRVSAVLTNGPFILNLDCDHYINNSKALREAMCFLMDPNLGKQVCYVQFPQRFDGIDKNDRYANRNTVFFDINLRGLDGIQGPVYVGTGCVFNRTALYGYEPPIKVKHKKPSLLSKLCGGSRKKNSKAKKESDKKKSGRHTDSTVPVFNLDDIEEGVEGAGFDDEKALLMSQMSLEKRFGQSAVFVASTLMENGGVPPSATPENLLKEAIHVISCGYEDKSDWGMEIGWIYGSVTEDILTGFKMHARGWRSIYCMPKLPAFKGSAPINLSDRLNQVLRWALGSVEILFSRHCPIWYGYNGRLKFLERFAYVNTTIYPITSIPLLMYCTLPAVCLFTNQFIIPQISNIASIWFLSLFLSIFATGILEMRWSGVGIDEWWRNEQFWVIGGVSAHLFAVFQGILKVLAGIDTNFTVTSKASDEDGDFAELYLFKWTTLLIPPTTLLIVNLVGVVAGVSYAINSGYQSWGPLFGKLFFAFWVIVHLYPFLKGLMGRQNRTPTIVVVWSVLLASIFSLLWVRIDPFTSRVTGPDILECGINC

[2] = molecular target: T2, CESA1, N-terminal YN or YC fusion (BiFC) (Arabidopsis thaliana) (UniProt O48946); assay: as above
T2 sequence: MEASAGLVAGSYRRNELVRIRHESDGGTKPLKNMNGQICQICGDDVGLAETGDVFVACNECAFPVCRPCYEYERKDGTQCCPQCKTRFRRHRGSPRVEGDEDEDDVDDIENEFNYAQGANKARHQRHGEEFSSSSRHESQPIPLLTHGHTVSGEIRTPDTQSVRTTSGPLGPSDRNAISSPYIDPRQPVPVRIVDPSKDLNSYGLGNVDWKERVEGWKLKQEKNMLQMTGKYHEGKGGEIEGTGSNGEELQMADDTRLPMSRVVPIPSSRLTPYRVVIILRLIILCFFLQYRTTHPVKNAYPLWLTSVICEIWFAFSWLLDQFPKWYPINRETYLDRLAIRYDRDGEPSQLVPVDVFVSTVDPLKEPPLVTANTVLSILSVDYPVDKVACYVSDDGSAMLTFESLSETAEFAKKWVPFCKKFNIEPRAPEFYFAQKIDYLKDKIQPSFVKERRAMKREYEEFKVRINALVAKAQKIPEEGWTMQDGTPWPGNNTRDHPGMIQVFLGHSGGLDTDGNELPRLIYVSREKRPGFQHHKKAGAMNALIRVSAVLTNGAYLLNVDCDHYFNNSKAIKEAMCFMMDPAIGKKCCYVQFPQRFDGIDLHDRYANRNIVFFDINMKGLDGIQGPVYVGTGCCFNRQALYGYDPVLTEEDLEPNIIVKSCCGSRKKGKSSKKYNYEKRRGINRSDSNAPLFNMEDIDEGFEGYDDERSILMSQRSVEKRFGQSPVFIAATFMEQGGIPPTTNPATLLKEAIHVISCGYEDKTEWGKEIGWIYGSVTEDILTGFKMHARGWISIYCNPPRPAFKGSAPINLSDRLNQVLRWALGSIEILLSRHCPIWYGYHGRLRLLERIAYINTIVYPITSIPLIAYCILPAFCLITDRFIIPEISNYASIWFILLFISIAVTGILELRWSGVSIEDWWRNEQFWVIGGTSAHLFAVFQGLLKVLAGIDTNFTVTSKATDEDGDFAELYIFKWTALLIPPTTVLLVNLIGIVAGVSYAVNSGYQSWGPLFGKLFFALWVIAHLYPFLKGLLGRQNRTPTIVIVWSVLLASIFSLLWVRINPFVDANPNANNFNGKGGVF

B1: MUR3, N-terminal YN or YC fusion (BiFC) (protein, UniProt Q7XJ98 1-619)
chain: MFPRVSMRRRSAEVSPTEPMEKGNGKNQTNRICLLVALSLFFWALLLYFHFVVLGTSNIDKQLQLQPSYAQSQPSSVSLRVDKFPIEPHAAPSKPPPKEPLVTIDKPILPPAPVANSSSTFKPPRIVESGKKQEFSFIRALKTVDNKSDPCGGKYIYVHNLPSKFNEDMLRDCKKLSLWTNMCKFTTNAGLGPPLENVEGVFSDEGWYATNQFAVDVIFSNRMKQYKCLTNDSSLAAAIFVPFYAGFDIARYLWGYNISRRDAASLELVDWLMKRPEWDIMRGKDHFLVAGRITWDFRRLSEEETDWGNKLLFLPAAKNMSMLVVESSPWNANDFGIPYPTYFHPAKDSEVFEWQDRMRNLERKWLFSFAGAPRPDNPKSIRGQIIDQCRNSNVGKLLECDFGESKCHAPSSIMQMFQSSLFCLQPQGDSYTRRSAFDSMLAGCIPVFFHPGSAYTQYTWHLPKNYTTYSVFIPEDDVRKRNISIEERLLQIPAKQVKIMRENVINLIPRLIYADPRSELETQKDAFDVSVQAVIDKVTRLRKNMIEGRTEYDYFVEENSWKYALLEEGQREAGGHVWDPFFSKPKPGEDGSSDGNGGTTISADAAKNSWKSEQRDKTQ
binding [1]: no binding | binding [2]: no binding
